Some of the results follow.
test system: PfHDP1 homeodomain (GST-tagged); experiment: gcPBM binding intensity (ln(normalized median fluorescence intensity)); higher = stronger DNA binding
Method in brief: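 An Agilent 4 × 180k array carrying primer-extended double-stranded 36-bp intergenic genomic probes and negative controls received GST-tagged P. falciparum DNA-binding domains expressed in E. coli, about 25 μg on average, for 1 h. The binding buffer contained 1× PBS, 1% milk, 0.2 mg/ml BSA, 0.5% salmon testes DNA and 0.03% Triton X-100. Binding intensity is the top Masliner-normalised natural-log median intensity across replicate spots of either probe orientation, read after Alexa488 anti-GST antibody staining and a 488 nm scan.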

Row | Sequence | gcPBM binding intensity (ln)
1 | TTTTTTTTTTTTAATGCACACAATATATAATATGTA [CACACA_site3694] | 10.2
2 | ATATTATTATATATAGTGCATATTATTATTTTTATT | 8.22
3 | CATTATTCTTTTAATATACACACTTTGTCTTTTCGC [CACACA_site2762] | 6.62
4 | TCTCATAGTAAACACACACACACACCCACATATATA [CACACA_site5034] | 7.01
5 | TATGCACTTTAGGGCAGTACGTCAACATTATCTTTA [XGTACX_site3382] | 7.86
6 | CCTCATACGAAATATAAACACACATACAATAAATAA [CACACA_site8620] | 6.82
7 | TATATTTATTATAACACACACATATAAATATTATAG [CACACA_site6726] | 6.74
8 | TGTTAAAATTATTTGGTGCACTTGTTTTACCTTATT | 9.92
9 | ATAAATTTTTTTTTTTTTTTTTTTTTTTTTTTTTTT [CACACA_negctrl_site508] | 7.38
10 | ATTTTTTTCATAGACACACACAATATATCTGTTTCC [CACACA_site3023] | 6.83
11 | TATTAATTTCGGGAAGTGCATTATGTTTATAGAATA | 8.75
12 | TGTTTTAAACTAATTTGTACATAGTTATTTATATTT [XGTACX_site7196] | 6.36
13 | ATTATATAAGTACACAAACAAGTATGAGATTCAAAA [GTGCAC_negctrl_site119] | 6.12
14 | CCATATATTTGGTATAGTACTTTTTATTTTATTTCA [XGTACX_site8933] | 6.53
15 | ATATATTTTTCTTTACGTACGAAGCAAAATAACATT [XGTACX_site8145] | 6.18
16 | AAATGAACATATATGTGTACTTATATTTTTCTAAAT [XGTACX_site3388] | 6.38
17 | AATTGTTTTTTTTTCTTATTTTATGTTATACACACA [TGCATGCA_negctrl_site380] | 6.83
18 | AAAAAAAAAAAAAACACATGCAGAAGAAAAAAAATA [TGCATGCA_site545] | 6.45
19 | TCATTAAATGTTTAGGTGCATACTTTAATTTTTAAT [GTGCAC_site9906] | 9.31
20 | AAAAAAAAAAAAAAAGTGCATATATAAATATTGTAT [GTGCAC_site9459] | 7.19
21 | AAATATTATAATAATTGTACTATATATACAGTTATT [XGTACX_site1963] | 6.39
22 | AAAAAAAAAAAATTATGTACATATTATATATAATGG [XGTACX_site2885] | 6.71
23 | TAAAATATGTCATGGGTGCTTCTTTTTATACCTATG [GTGCAC_site9888] | 6.29

Row | Sequence | gcPBM binding intensity (ln)
24 | ATATATATATATTTATGTACGCATTTATAGACGTAG [XGTACX_site6031] | 8.7
25 | TGTTTTTAAAAATATACACACACAGATATTATATAT [CACACA_site8162] | 6.73
26 | TTTTATATTTATTTTTGTACATAAATGATCTCAAAT [XGTACX_site7768] | 6.46
27 | AGAAAAAAAAAAAAAAATAAAAAAATAAATAAATAA [GTGCAC_negctrl_site161] | 6.13
28 | ACTTAAATAATACATACACACATGTACTTACAGAAA [CACACA_site8458] | 6.71
29 | TATGATAACCATAATTGTACAGAATGAAACGTAAAT [XGTACX_site1653] | 7.03
30 | CACAAATATATACATACACACATATATACACATATA [CACACA_site8024] | 6.84
31 | AAAACGCAGTTTAATATACACACCAAAAAAAAAAAA [CACACA_site3036] | 6.31
32 | TTTGAGATGTGGTGTACACAAAATTAGGTACACATC [CACACA_site5773] | 6.81
33 | ATAAATATAAAACACACACACATATTATATATATAT [CACACA_site3064] | 8.71
34 | AAAAAAAAAAAAAAGTGTACCTTCAAAATAATATTG [XGTACX_site2844] | 6.27
35 | CCTTTTTCTACTTTCTCACACATATTAAGAATTATA [CACACA_site5621] | 7.06
36 | TCTTTCCTTATTAAAACACACAAATACATTATTTAA [CACACA_site2147] | 6.7
37 | AAGTTTTTTTTTATCACACACAAAAAAAAAAATATA [CACACA_site1362] | 6.15
38 | AAAAAATGAAAAAACTGTACGCAATTTTGTTTTTAT [XGTACX_site2299] | 6.18
39 | ATGTGAAAATAAGACACACTCAAAAGGTTTATATTA [CACACA_site4595] | 6.24
40 | TTTTTATATAATTTAACACACATTTCATATAAAAAA [CACACA_site3103] | 6.55
41 | ATATACTGTATGAAAGCACACATACTTATTACTAAC [CACACA_site9384] | 6.55
42 | AAAAAATTTCAAATAACACACACTAATATAAATATG [CACACA_site6783] | 6.63
43 | TAACTTTGGAGGAGCTGTACGATTATTTTGATCCTT [XGTACX_site2514] | 6.27
44 | TTTAAAAAATAATATTGTACTATTCTCCCAATTTCT [XGTACX_site7079] | 6.03
45 | TGGGAAAAAATATATGCACACCCCCCAAAAAAAAAA [CACACA_site8696] | 10.6
46 | AAAAAATGTTATAAAAGTACATAATTTATCTACCAT [XGTACX_site3035] | 6.02

Row | Sequence | gcPBM binding intensity (ln)
47 | AATTCTTTATTATATGCACACGTACATATAATATAT [CACACA_site8621] | 9.66
48 | AGTCTATAGTAATTTACACACAAAAAAATATCAGGA [CACACA_site7620] | 6.72
49 | AGTAGTCTGGAGAAAAGTACATAGTATCTGGTAGCT [XGTACX_site2027] | 6.41
50 | CTTATATTAAGTATTACACACATATATATAAATGCA [CACACA_site4581] | 6.47
51 | CCTAAATAAATGGACACACACATATATATATATATA [CACACA_site1439] | 9.37
52 | TAGAAATAAGAAAAATGTACATATAATATTGAAAGT [XGTACX_site3043] | 7.3
53 | TATATATATATAAGAAGTACAGAAAATTAGAAAAAA [XGTACX_site8773] | 8.65
54 | TTTTACGTAATATTTATACACACGAACCTTATTAAT [CACACA_site2300] | 6.61
55 | AATATCTTAGTGGATACACACATATAAATGGGTATT [CACACA_site4426] | 6.35
56 | TCATATGTTAAACACACACACACACCGAAAAAAACA [CACACA_site9067] | 6.88
57 | AAAAAATTAAAAAAAAAAAAATCATGAAAAAAACAA [CACACA_negctrl_site1673] | 6.37
58 | TTTATTGATAATATATATATATATATATATATATAT [GTGCAC_negctrl_site552] | 9.39
59 | AGAACATGCAAACATGCACACAGAAAAAAAAAATAT [CACACA_site8442] | 9.36
60 | GTTTTATTCCATTATTGTACTTAATATAAAGAAACT [XGTACX_site3054] | 6.61
61 | ATAATAATATGTGGGTGTACATATACACATATATAT [XGTACX_site4356] | 6.96
62 | AGAAAAATCTAAATTCGTACATAACGTTTAAACATA [XGTACX_site2511] | 6.12
63 | AGGATATAAAGTTGTGCATGTCAAGTGCACCGTATT [TGCATGCA_site451] | 10.2
64 | GATGTGTATATTAAATGTACGAACAGTTGAGGCGAA [XGTACX_site7853] | 7.44
65 | ATGTTACACAGACACACACACATAAAAAAACAAAAA [CACACA_site7516] | 7.17
66 | TTTTTAAAAAATAAGAAAAAATAAATATATTACAAA [XGTACX_negctrl_site191] | 6.58
67 | CAGCATGGTATACCTATAAAATATATATACTAACAT [TGCATGCA_negctrl_site51] | 6.57
68 | CACATACATATATATACACACAAATATATATACGCA [CACACA_site791] | 6.92
69 | GGCATATATACATATGGTACACATTTATTAATACCG [XGTACX_site2710] | 6.27

Row | Sequence | gcPBM binding intensity (ln)
70 | ATACTAAAAATGAATGTACACATATATATATATATA [TGCATGCA_negctrl_site209] | 9.26
71 | AAAAAAAATAAAAATAGTACCCAAAAAATTATGAAT [XGTACX_site6641] | 6.44
72 | TATAATAAAATATTTTGTACGTATATTTTAATATTT [XGTACX_site2582] | 6.29
73 | TTTTTATAAAAATGAACACACACATATATATATATA [CACACA_site9160] | 9.22
74 | AATAACACTATTTAACGTACAAAAAAAAAAAAGAAA [XGTACX_site3721] | 6.4
75 | AAAAAATATAATAATTGTACACATGCACACACAAAT [XGTACX_site1563] | 8.65
76 | TTTCATATCTTGTCAAGTACATATTTTTATTTTCTT [XGTACX_site2160] | 6.2
77 | ACTTAATATCGGTACACACACAAGATAAGAATTATG [CACACA_site894] | 6.62
78 | AATTAATAAATATTATATGTTAATATTTTTTTTGTT [CACACA_negctrl_site1692] | 5.93
79 | AGAGGAGTAAAACAAAACAAAGAGAAATAAACACAC [XGTACX_negctrl_site386] | 7.5
80 | CACAGACACGGACACACACACACAAAAAAAAAAAGA [CACACA_site4436] | 6.8
81 | TATTTTCTTTAATTAATTATTGGTCTGAATGGGGTT [CACACA_negctrl_site418] | 6.82
82 | TATTAAAAAAATATTTGTACTTAAAATTTATTATAT [XGTACX_site1467] | 6.08
83 | AAAAAGGAAATAATAACACACATTAGTAATTATAAA [CACACA_site7573] | 6.23
84 | ACAAAAAAAAAAAAAAAAAGAAGAATATATCTATAT [CACACA_negctrl_site759] | 6.12
85 | TATCATACAATATTCACACAAATAAATTGACATATT [CACACA_site5891] | 6.53
86 | AATTGTATGTATGCCTGTACATATGTCTATCTTAAG [XGTACX_site1927] | 6.14
87 | TATTTTATATGAGGCACACAAATTTTAATTGTTATT [CACACA_site725] | 5.99
88 | ATTTATTTATTTTTTTGTACTTATAATTTTTATTAT [XGTACX_site2656] | 6.59
89 | AGGAATATCGAAAACTGTACTTGTATGTTTCATAAA [XGTACX_site6143] | 6.06

Reference: the supplement of paper PMC11417369
